According to the supplement of paper PMC3334620:
In all, about 33,000 sequences were measured (“E-score (-0.5 to 0.5)”: median about -0.035, highest 2% from about 0.35 on). The list shows a part of the results.

Target: T1, Pdr3 (UniProt P33200)
T1 sequence: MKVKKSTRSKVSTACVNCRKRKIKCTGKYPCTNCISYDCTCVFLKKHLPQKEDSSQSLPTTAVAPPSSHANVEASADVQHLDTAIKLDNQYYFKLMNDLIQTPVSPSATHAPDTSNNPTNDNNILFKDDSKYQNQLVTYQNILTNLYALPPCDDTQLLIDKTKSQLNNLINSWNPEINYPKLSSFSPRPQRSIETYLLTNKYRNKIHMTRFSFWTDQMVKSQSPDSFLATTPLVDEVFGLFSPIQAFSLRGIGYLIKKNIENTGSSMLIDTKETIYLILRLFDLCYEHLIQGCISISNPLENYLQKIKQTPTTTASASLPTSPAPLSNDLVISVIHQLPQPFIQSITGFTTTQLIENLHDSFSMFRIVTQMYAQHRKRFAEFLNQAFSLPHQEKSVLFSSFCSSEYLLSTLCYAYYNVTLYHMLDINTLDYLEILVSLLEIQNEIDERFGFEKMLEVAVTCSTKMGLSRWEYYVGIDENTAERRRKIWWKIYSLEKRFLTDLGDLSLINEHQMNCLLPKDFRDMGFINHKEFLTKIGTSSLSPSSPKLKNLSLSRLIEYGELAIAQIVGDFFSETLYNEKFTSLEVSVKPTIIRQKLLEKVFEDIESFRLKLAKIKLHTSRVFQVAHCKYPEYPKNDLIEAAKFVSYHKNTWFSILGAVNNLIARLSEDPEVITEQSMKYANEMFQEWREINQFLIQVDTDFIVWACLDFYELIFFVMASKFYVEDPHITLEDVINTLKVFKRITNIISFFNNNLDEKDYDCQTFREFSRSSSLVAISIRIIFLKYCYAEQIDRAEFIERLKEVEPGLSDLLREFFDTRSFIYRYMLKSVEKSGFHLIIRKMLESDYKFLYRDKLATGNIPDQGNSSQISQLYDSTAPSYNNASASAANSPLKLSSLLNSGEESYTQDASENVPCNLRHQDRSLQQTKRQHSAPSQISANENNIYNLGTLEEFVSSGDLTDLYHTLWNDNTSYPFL
Assay: PBM E-score (8-mer binding enrichment) (E-score (-0.5 to 0.5)); higher = stronger / more preferred TF binding; most listed sequences are background and not binding sites
Settings: protein concentration: 200 nM; construct: GST-full length
Experimental: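 Universal 'all 10-mer' protein binding microarrays (Agilent AMADID 015681) probed with GST-tagged S. cerevisiae TFs (full-length or DBD) made by in vitro transcription/translation (PURExpress), about 100-200 nM. Bound TF was detected with fluorescent anti-GST. Each ungapped 8-mer (which stands for itself and its reverse complement) is scored by the PBM enrichment score (E-score), a modified Wilcoxon-Mann-Whitney statistic from -0.5 to +0.5, computed with the Universal PBM Analysis Suite. Scale: above 0.35 generally sequence-specific binding.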

Point of comparison: TACTAACA, “PBM E-score” value -0.00381. Against it:
- AGGATACA — lower, -0.187
- AAACTCTT — lower, -0.264
- GACAAGGA — lower, -0.0759
- CTAGTGCC — lower, -0.109
- ACACCGCG — higher, 0.261
- CCTGTGAG — lower, -0.131
- GAACCGGC — higher, 0.247
- CCTTATCA — lower, -0.143
- ACATTCTC — lower, -0.143
- ACCCAGAC — higher, 0.0736
- CGTGCGGA — higher, 0.177
- AATCCGTG — higher, 0.237
- CAGGAGAA — higher, 0.036
- GGTACACA — lower, -0.0852
- CACAGATG — lower, -0.238
- CTAGGTTC — higher, 0.154
- CAGGGCAG — lower, -0.182
- AGTATTCG — higher, 0.0375
- CAAAGTTC — higher, 0.12
- CTTATTAA — higher, 0.0464
- CGGCGGCC — higher, 0.144
- CATTGTGC — lower, -0.0434
- GCCCATCC — higher, 0.0505
- AATCGGCT — higher, 0.243
- AAACATCG — lower, -0.0752
- CATAAAAA — lower, -0.121
- CCTAAATC — higher, 0.0907
- GGATTCAA — lower, -0.075
- CAGCATAA — lower, -0.0299
- ACATTGCT — lower, -0.252
- CGGTCCTA — lower, -0.122
- TGGGGAAA — higher, 0.132
- AATTCTAA — lower, -0.0663
- CTTGTTGA — lower, -0.0347
- AGTAGACT — lower, -0.231
- GAATACTA — higher, 0.183
- ATAGGTTA — lower, -0.175
- GACGTTCC — higher, 0.185
- TAGCCACA — lower, -0.221
- TCTTCCAA — higher, 0.00234
- GACGAGGC — lower, -0.0348
- AACACCTT — lower, -0.0602
- CTACCTTA — lower, -0.0625
- TACAGGAA — higher, 0.0679
- GAGTTCTA — lower, -0.129
- ATGATTCG — higher, 0.127
- AGCGTGAT — higher, 0.00665
- GTACGTCA — lower, -0.2
- CCTTTCAC — lower, -0.109
- ATTGGCCG — higher, 0.276
- CAACGCTC — lower, -0.249
- CAGAGGAG — lower, -0.195
- CCTTGGCC — lower, -0.182
- GCATATTA — higher, 0.0652
- GCGTTTCC — higher, 0.315
- AGTCGTAG — lower, -0.197
- AGGCGAAG — lower, -0.137
- CCGCCCAA — higher, 0.0443
- ATTTGCAG — higher, -0.0031
- GCGTTCCA — lower, -0.088
- CAGACGCC — lower, -0.0932
- GCGCGGGA — higher, 0.312
- GCGCCACC — lower, -0.126
- ATTTCATC — higher, 0.119
- CAGGAATC — higher, 0.0807
- TATAATGA — higher, 0.0163
- AGAACCAG — lower, -0.0734
- ATTAAGTG — higher, 0.00402
- GGTTCAAA — higher, 0.0199
- CGCACCAG — higher, 0.133
- CGTATCCC — lower, -0.0169
- GTTTTCTA — lower, -0.0574
- ATAATCCG — higher, 0.258
- AGTACTTC — higher, 0.175
- GCCCTGTA — lower, -0.00835
- GAAAAAGA — lower, -0.051
- GCAAAAAA — higher, 0.0339
- ATTCCGGA — higher, 0.481
- GCGTTACA — lower, -0.19
- ATCTGTGG — lower, -0.162
- GCAGCAGA — lower, -0.0786
- AATGTCCC — higher, 0.152
- AGACCGGC — lower, -0.0301
- AATCCGAA — higher, 0.0894
- GCATTTCA — higher, 0.017
- GATATGGA — higher, 0.231
- AGGTTCGG — higher, 0.156
- ATACATTA — higher, 0.0213
- AGGCGACA — lower, -0.148
- ATCCGTGG — higher, 0.428
- AAGCTGGC — lower, -0.11
- CAGGGAAA — higher, 0.0962
- GCGACCAC — higher, 0.132
